Reference: PubChem BioAssay AID1832 (Broad Institute, 2009)
Out of some 300,000 compounds screened, about 1,100 (0.37%) were called active. This list was built around the results that the source calls inconclusive (neither active nor inactive); the mix of calls is not that of the screen.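 The calls were made as follows: active = inhibition past about -25% in most replicates, and total fluorescence under double the plate's negative control median (limit read from the data); inconclusive = replicates evenly split on the limit, or fluorescence at least double controls; inactive = too little inhibition in most replicates.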

The compounds below were run against Zinc finger protein mex-5 (Caenorhabditis elegans) (UniProt Q9XUB2) (assay: MEX-5 zinc finger RNA-binding disruptors – biochemical, C. elegans, fluorescence polarization, MLPCN library, primary screen (AID 1832;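 also: 0% = DMSO and -100% = 5 µM competing unlabeled TCR2 RNA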)). Settings: MEX-5/FITC-TCR2 RNA binding, at 10 µM, stronger effect = lower value.
UniProt Q9XUB2, sequence (Q9XUB2 whole entry, looked up): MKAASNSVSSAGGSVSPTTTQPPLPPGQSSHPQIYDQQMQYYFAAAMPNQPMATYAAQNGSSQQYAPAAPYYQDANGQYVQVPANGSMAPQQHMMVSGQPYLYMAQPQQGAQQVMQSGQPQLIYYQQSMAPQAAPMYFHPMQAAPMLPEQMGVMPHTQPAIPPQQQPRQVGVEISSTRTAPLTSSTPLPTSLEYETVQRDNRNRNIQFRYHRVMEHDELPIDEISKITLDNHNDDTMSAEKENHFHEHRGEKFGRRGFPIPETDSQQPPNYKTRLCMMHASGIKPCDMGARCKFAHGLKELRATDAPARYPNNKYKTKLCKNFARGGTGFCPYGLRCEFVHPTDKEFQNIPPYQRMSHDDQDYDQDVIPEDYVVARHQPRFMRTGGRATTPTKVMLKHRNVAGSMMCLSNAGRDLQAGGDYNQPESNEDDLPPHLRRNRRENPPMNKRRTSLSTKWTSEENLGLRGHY

For `CCOC(=O)c1cnc(-n2nc(C)cc2C)nc1NNc1nc(C)cc(C)n1`, which activity score (negative = inhibition of binding) is on record?
The activity score (negative = inhibition of binding) was inconclusive: -18%.

Which activity score (negative = inhibition of binding) does the source give for `N=c1oc2c3c4c(cc2cc1C(=O)Nc1ccccc1)CCCN4CCC3` here?
The activity score (negative = inhibition of binding) was inconclusive: -91.5% [fluorescent].

For `COc1ccc(S(=O)(=O)N2CCC(C(=O)NC3CCCCC3)CC2)cc1C`, which activity score (negative = inhibition of binding) is on record?
Its activity score (negative = inhibition of binding) is inactive: -0.878%.

Which activity score (negative = inhibition of binding) does the source give for `Cc1ccc(Cn2ccc(NC(=O)c3cc4nc(-c5ccco5)cc(C(F)(F)F)n4n3)n2)cc1` here?
Its activity score (negative = inhibition of binding) is inactive: 0.872%.

With `Cc1ccc(C)n1C(Cc1ccccc1)C(=O)O` (stereo not drawn) as the compound, how does the activity score (negative = inhibition of binding) read?
Its activity score (negative = inhibition of binding) is active: -27.1%.

With `NS(=O)(=O)c1ccc(CCNC(=S)Nc2ccccc2)cc1` as the compound, how does the activity score (negative = inhibition of binding) read?
The activity score (negative = inhibition of binding) was inactive: -5.58%.

How did the activity score (negative = inhibition of binding) turn out when `CCCCNC(=O)c1cnc2n(c1=O)CCS2` was run?
The activity score (negative = inhibition of binding) was inactive: 1.97%.

How did the activity score (negative = inhibition of binding) turn out when `Cc1cccc(NC2=Nc3ccccc3N3C2=Nc2c(c(C)nn2-c2ccccc2)C3c2ccc(O)c(O)c2)c1` (stereo not drawn) was run?
The activity score (negative = inhibition of binding) was inconclusive: -18.4%.

How did the activity score (negative = inhibition of binding) turn out when `Cc1nn2c(N3CCOCC3)c3c(nc2c1-c1ccccc1)CCCC3` was run?
Its activity score (negative = inhibition of binding) is inconclusive: -20.3%.

Which activity score (negative = inhibition of binding) does the source give for `O=C(O)COc1ccc2c3c(c(=O)oc2c1)CCC3` here?
The activity score (negative = inhibition of binding) was inactive: -4.17%.

Which activity score (negative = inhibition of binding) does the source give for `COc1cc(/C=c2\s/c(=C(/C#N)C(=O)N3CCCC3)n(-c3ccccc3)c2=O)ccc1O` here?
The activity score (negative = inhibition of binding) was inconclusive: 59% [fluorescent].

How did the activity score (negative = inhibition of binding) turn out when `N=c1c(C(=O)NC2CCCC2)cc2c(=O)n3ccccc3nc2n1CCN1CCOCC1` was run?
Its activity score (negative = inhibition of binding) is inactive: -0.356%.

With `CSCCC(NS(=O)(=O)c1cccc(C(F)(F)F)c1)C(=O)N(C)CCOc1ccc(Cl)cc1` (stereo not drawn) as the compound, how does the activity score (negative = inhibition of binding) read?
Its activity score (negative = inhibition of binding) is inactive: -1.66%.

`Cc1ccccc1N1C(=O)c2cccc3c(N(C)CCO)ccc(c23)C1=O` was tested. Which activity score (negative = inhibition of binding) did it give?
The activity score (negative = inhibition of binding) was inconclusive: -85.4% [fluorescent].

With `CN(C)c1cccc2c1c(NC(=O)c1ccc(F)cc1)nn2C` as the compound, how does the activity score (negative = inhibition of binding) read?
The activity score (negative = inhibition of binding) was inactive: 1.33%.

Which activity score (negative = inhibition of binding) does the source give for `CN(C)c1ccc(/C=C/c2cc[n+]([O-])cc2)cc1` here?
The activity score (negative = inhibition of binding) was inconclusive: 3.1% [fluorescent].

How did the activity score (negative = inhibition of binding) turn out when `O=Cc1coc2c(ccc3ccccc32)c1=O` was run?
Its activity score (negative = inhibition of binding) is inactive: -0.911%.

Which activity score (negative = inhibition of binding) does the source give for `NC(=O)c1ccccc1N/C=C/C(=O)c1ccc(F)cc1` here?
The activity score (negative = inhibition of binding) was inconclusive: -19.5%.

How did the activity score (negative = inhibition of binding) turn out when `COC(=O)c1ccc(C23CC4(C2)[C@H](CN(Cc2ccc(C(F)(F)F)cc2)[C@@H]4c2ccccc2)C3c2ccccc2)cc1` (stereo partly drawn) was run?
The activity score (negative = inhibition of binding) was inconclusive: -11.7%.

For `CCOc1ccc(Br)cc1S(=O)(=O)NC(=O)c1ccccc1`, which activity score (negative = inhibition of binding) is on record?
Its activity score (negative = inhibition of binding) is inconclusive: -13.9%.

How did the activity score (negative = inhibition of binding) turn out when `COc1ccccc1NC(=O)c1sc2nc(-c3ccco3)ccc2c1N` was run?
Its activity score (negative = inhibition of binding) is inactive: -1.31%.

Which activity score (negative = inhibition of binding) does the source give for `O=C(NCc1cccs1)C1CCN(S(=O)(=O)c2ccc(Br)s2)CC1` here?
The activity score (negative = inhibition of binding) was inconclusive: -23.6%.

For `Cc1cc(/C=C2/C(=N)N3C(=NC2=O)SN=C3S(C)(=O)=O)c(C)n1-c1ccc(F)cc1`, which activity score (negative = inhibition of binding) is on record?
Its activity score (negative = inhibition of binding) is inconclusive: -21.7%.

`O=C(O)c1cc(-c2ccc(/C=c3\sc4nc5ccc(Br)cc5n4c3=O)o2)ccc1Cl` was tested. Which activity score (negative = inhibition of binding) did it give?
Its activity score (negative = inhibition of binding) is active: -28.8%.

Which activity score (negative = inhibition of binding) does the source give for `COc1cc(CCC(=O)Nc2ccc(Cl)c(C(F)(F)F)c2)cc(OC)c1OC` here?
The activity score (negative = inhibition of binding) was inconclusive: -19.6%.

`Cc1ccc(CNC(=O)CC(C)S(=O)(=O)c2ccc3c(c2)NC(=O)CO3)cc1` (stereo not drawn) was tested. Which activity score (negative = inhibition of binding) did it give?
Its activity score (negative = inhibition of binding) is inactive: 3.95%.

For `Cc1cc(C=C2C(=O)c3ccccc3C2=O)c(C)n1-c1ccc(Cl)cc1`, which activity score (negative = inhibition of binding) is on record?
Its activity score (negative = inhibition of binding) is inconclusive: -13.8%.

With `C/C(=N/N=C(\C)c1ccccc1O)c1ccccc1O` as the compound, how does the activity score (negative = inhibition of binding) read?
Its activity score (negative = inhibition of binding) is inconclusive: -4.48%.

With `O=C(CN1C(=O)c2ccccc2C1=O)Nc1cccc([N+](=O)[O-])c1` as the compound, how does the activity score (negative = inhibition of binding) read?
The activity score (negative = inhibition of binding) was inactive: 2.09%.

How did the activity score (negative = inhibition of binding) turn out when `COc1cc(/C=C/[N+](=O)[O-])ccc1OC(=O)/C=C/c1ccc(F)cc1` was run?
The activity score (negative = inhibition of binding) was inactive: -1.51%.

For `C/C(=C\C=C(C#N)C#N)c1cc(C#N)c(N)o1`, which activity score (negative = inhibition of binding) is on record?
The activity score (negative = inhibition of binding) was inconclusive: 54.6% [fluorescent].

Which activity score (negative = inhibition of binding) does the source give for `CCCNC(=O)c1ccc2c(=O)c(O)c(-c3ccsc3)[nH]c2c1` here?
Its activity score (negative = inhibition of binding) is inconclusive: -113% [fluorescent].

With `COc1ccc2c3c(cccc13)C(=O)CC2` as the compound, how does the activity score (negative = inhibition of binding) read?
Its activity score (negative = inhibition of binding) is inconclusive: -161% [fluorescent].

`CCN(CC)C(=O)CNc1ccc(C(F)(F)F)cc1[N+](=O)[O-]` was tested. Which activity score (negative = inhibition of binding) did it give?
Its activity score (negative = inhibition of binding) is inconclusive: -9.19%.

Which activity score (negative = inhibition of binding) does the source give for `CC(=O)Nc1ccc(S(=O)(=O)NCc2nc(-c3cccc(C)c3)no2)cc1` here?
Its activity score (negative = inhibition of binding) is inconclusive: -20.2%.

With `Cc1c(O)c2c3c(cccc3c1O)C(=O)N(c1ccccc1)C2=O` as the compound, how does the activity score (negative = inhibition of binding) read?
The activity score (negative = inhibition of binding) was inconclusive: -60.8% [fluorescent].

With `Cc1c(Cl)cccc1Nc1ncccc1C(=O)OCC(O)CO` (stereo not drawn) as the compound, how does the activity score (negative = inhibition of binding) read?
The activity score (negative = inhibition of binding) was inactive: -0.382%.

How did the activity score (negative = inhibition of binding) turn out when `CCOC(=O)CN1C(=O)S/C(=C/c2ccc(N3CCCCC3)o2)C1=O` was run?
The activity score (negative = inhibition of binding) was inconclusive: 50.2% [fluorescent].

Which activity score (negative = inhibition of binding) does the source give for `COc1ccc(OC)c(C(=O)c2coc3ccc(O)c(CN4CCOCC4)c23)c1` here?
Its activity score (negative = inhibition of binding) is inconclusive: -16.5%.

With `COc1ccccc1-c1cc(C(=O)NCCCN2CCOCC2)no1` as the compound, how does the activity score (negative = inhibition of binding) read?
The activity score (negative = inhibition of binding) was inactive: -0.233%.

For `N#CC(C#N)=Cc1ccc(NC(=O)c2ccc(Br)cc2)cc1`, which activity score (negative = inhibition of binding) is on record?
The activity score (negative = inhibition of binding) was inconclusive: -19.6%.

Which activity score (negative = inhibition of binding) does the source give for `Oc1ccc2ccccc2c1C=Nc1ccc(Cl)cn1` here?
The activity score (negative = inhibition of binding) was inactive: -0.839%.

With `Cc1c(NC(=O)COC(=O)C23CC4CC(CC(O)(C4)C2)C3)c(=O)n(-c2ccccc2)n1C` as the compound, how does the activity score (negative = inhibition of binding) read?
The activity score (negative = inhibition of binding) was inactive: -1.95%.

For `Cc1cc(C)cc(NC(=O)C(=S)NCc2ccccc2)c1`, which activity score (negative = inhibition of binding) is on record?
The activity score (negative = inhibition of binding) was inactive: -0.0988%.

Which activity score (negative = inhibition of binding) does the source give for `CNc1ccc2c3c(cccc13)C(=O)N(C)C2=O` here?
Its activity score (negative = inhibition of binding) is inconclusive: -143% [fluorescent].

`Cc1cc(F)ccc1S(=O)(=O)N1CCCOC1CNC(=O)C(=O)NC1CCCC1` (stereo not drawn) was tested. Which activity score (negative = inhibition of binding) did it give?
Its activity score (negative = inhibition of binding) is inactive: -0.369%.

`COc1ccc(Cn2nnnc2CN(Cc2cc3ccc(C)cc3[nH]c2=O)C2CCCC2)cc1` was tested. Which activity score (negative = inhibition of binding) did it give?
Its activity score (negative = inhibition of binding) is inactive: -1.3%.

With `Cn1nc(C(F)(F)F)cc1-c1ccc(/C=C(\C#N)C(=O)c2cccc(C(F)(F)F)c2)s1` as the compound, how does the activity score (negative = inhibition of binding) read?
The activity score (negative = inhibition of binding) was inconclusive: 34.3% [fluorescent].

For `CC1(C)CC(NCc2cccc([N+](=O)[O-])c2)CC(C)(C)N1`, which activity score (negative = inhibition of binding) is on record?
Its activity score (negative = inhibition of binding) is inactive: 4.45%.

`O=C(NCCO)c1ccc2nc(-c3ccco3)c(-c3ccco3)nc2c1` was tested. Which activity score (negative = inhibition of binding) did it give?
Its activity score (negative = inhibition of binding) is active: -38.7%.

`CC(=O)OC1C(N2CCCCC2)c2c(ccc(/C=C/C(=O)N3CCCCC3)c2O)OC1(C)C` (stereo not drawn) was tested. Which activity score (negative = inhibition of binding) did it give?
The activity score (negative = inhibition of binding) was inactive: -0.378%.

How did the activity score (negative = inhibition of binding) turn out when `Cc1ccccc1N=Nc1c(O)n(C)c2ccccc12` was run?
Its activity score (negative = inhibition of binding) is inconclusive: -17.3%.

Which activity score (negative = inhibition of binding) does the source give for `CC1(OC(=O)C2CCCC2)C(=O)C=C2C=C(c3ccsc3)OC=C2C1=O` (stereo not drawn) here?
Its activity score (negative = inhibition of binding) is inactive: -5.35%.
